Test results reported in the supplement of paper PMC10126150.
Sequences with one replicate were seen in a single cluster, so their values are uncertain.

Test system: ATP
Test: switch fluorescence ratio, 500 uM ATP over buffer (Cy3 cluster intensity, sum of 5 cycles each) (fold (ratio)); higher = stronger signal-on switching upon ATP binding; sequences stand for … in TCGTCGGCAGCGTCAGATGTGTATAAGAGACAGTTTTTTTTTTTTTTTTTTTTTTTTT…TC
Details: aptamer strand: ATP DNA aptamer (quencher-CACCTGGGGGAGTATTGCGGAGGAAGG + anchor), 100 nM annealed; ATP concentration: 500 uM; one replicate
Outline: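 Cy3-labelled switching-strand clusters on a modified Illumina MiSeq flow-cell were annealed to 100 nM quencher-labelled ATP aptamer and imaged first in selection buffer, then after 15 min with 500 uM ATP at 22 °C. NaOH stripping and re-annealing separated each of five buffer/ATP cycles, and clusters outside 100-1000 RFU were excluded. The fluorescence ratio sums target-cycle Cy3 intensity over buffer-cycle Cy3 intensity per cluster and averages it per switch-domain sequence.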
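Note: ATP exposure 15 min at 22 °C before imaging.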

## CGGCTTGCCC
  switch fluorescence ratio: 1.02

## GGCTTTGA
  switch fluorescence ratio: 0.977

## GGAGAAATGC
  switch fluorescence ratio: 1.2

## AGCGAGGTCA
  switch fluorescence ratio: 0.991

## CGGCTGTCTG
  switch fluorescence ratio: 0.966

## CTCCCAGTGT
  switch fluorescence ratio: 5.19

## TGAATGCATT
  switch fluorescence ratio: 1.03

## GGGCACGAAA
  switch fluorescence ratio: 1.03

## CCTTGCTAGG
  switch fluorescence ratio: 1.06

## CCGAATACTA
  switch fluorescence ratio: 3.37

## CACAAGGC
  switch fluorescence ratio: 1.34

## AATGAAATAA
  switch fluorescence ratio: 0.976

## ATACGGGTGA
  switch fluorescence ratio: 1.01

## GGCGAAATCA
  switch fluorescence ratio: 1.21

## AGTCAGCG
  switch fluorescence ratio: 0.99

## TCGTTAAATA
  switch fluorescence ratio: 0.972

## GGGCACAGGT
  switch fluorescence ratio: 1.07

## TAATGAGATG
  switch fluorescence ratio: 1.08

## TCGAGTATTG
  switch fluorescence ratio: 1

## AGGGCATGCT
  switch fluorescence ratio: 1.02

## ATTCACCCTC
  switch fluorescence ratio: 0.997

## TCTAAGGAAG
  switch fluorescence ratio: 1.01

## TAGTTATGTA
  switch fluorescence ratio: 0.986

## TAGTGGGGAG
  switch fluorescence ratio: 0.959

## CCAAAGTTGA
  switch fluorescence ratio: 0.995

## CACGGGCCGA
  switch fluorescence ratio: 0.993

## ATTTAGAAAG
  switch fluorescence ratio: 0.996

## GGGGACCGGA
  switch fluorescence ratio: 0.956

## GGTGCCCTGG
  switch fluorescence ratio: 1.14

## GCGGGAAAAG
  switch fluorescence ratio: 0.928

## TAGATTTGCT
  switch fluorescence ratio: 0.971

## TTCATCTTCG
  switch fluorescence ratio: 1.04

## GTCCTCTGGC
  switch fluorescence ratio: 1.04

## TTAATAGCTC
  switch fluorescence ratio: 0.975

## CGTGCGCTAA
  switch fluorescence ratio: 2.83

## TCTTCTAACG
  switch fluorescence ratio: 1.07

## GGGAAACCTT
  switch fluorescence ratio: 1.66

## CTTTAAATGC
  switch fluorescence ratio: 1.46

## ACTAGGTAAA
  switch fluorescence ratio: 1

## CTGACTTTTA
  switch fluorescence ratio: 1.08

## GTTGTGTAG
  switch fluorescence ratio: 1.01

## AAGGCCGGGC
  switch fluorescence ratio: 0.996

## AGCAGTTAAA
  switch fluorescence ratio: 0.978

## AATTAGTATC
  switch fluorescence ratio: 0.966

## CGCATCGTCG
  switch fluorescence ratio: 1.02

## TGGGTCCTAT
  switch fluorescence ratio: 1.01

## GGTTGTGACC
  switch fluorescence ratio: 1.02

## CTGGGGATAT
  switch fluorescence ratio: 0.996

## TACTACAGGT
  switch fluorescence ratio: 1.08

## TTGGAAGTTG
  switch fluorescence ratio: 0.956

## CTTTTGTAT
  switch fluorescence ratio: 0.937

## GGTGTAGAGT
  switch fluorescence ratio: 1.01

## ACCAGCTGTA
  switch fluorescence ratio: 0.996

## GTTTTAATTG
  switch fluorescence ratio: 1.01

## AGAGTCTTCT
  switch fluorescence ratio: 0.972

## GTGTATGGCA
  switch fluorescence ratio: 1.02

## AGGGTAAGAT
  switch fluorescence ratio: 0.952

## TTGTAAGTA
  switch fluorescence ratio: 0.994

## TGATTCGGAA
  switch fluorescence ratio: 1.12

## CCGATCACCG
  switch fluorescence ratio: 1.24

## AATCGTTCAT
  switch fluorescence ratio: 1.01

## CATCTGTGGA
  switch fluorescence ratio: 0.996

## ACGGTGAAAC
  switch fluorescence ratio: 0.969

## AGCTAAGATT
  switch fluorescence ratio: 0.99

## ATGAATCCGG
  switch fluorescence ratio: 1.07

## GGCGTTCAGT
  switch fluorescence ratio: 0.988

## CAAACGTGTT
  switch fluorescence ratio: 1

## TGTTAGGACG
  switch fluorescence ratio: 1.08

## ACCGGTTCTC
  switch fluorescence ratio: 1.05

## GTCGTATCGG
  switch fluorescence ratio: 1.03

## CGCAAGAGAT
  switch fluorescence ratio: 1.1

## GCGAGAAAAA
  switch fluorescence ratio: 0.932

## CGATCTCATT
  switch fluorescence ratio: 1.02

## ATTAGATATG
  switch fluorescence ratio: 0.968

## ACCTGGAGCC
  switch fluorescence ratio: 1.47

## AAAGTTTTC
  switch fluorescence ratio: 1.04

## GACGGCTGGG
  switch fluorescence ratio: 0.96

## GACTTTGAGG
  switch fluorescence ratio: 0.995

## TTAAGTTCCC
  switch fluorescence ratio: 0.996

## GGCATCAAAC
  switch fluorescence ratio: 1.02

## AGCGAAGGAC
  switch fluorescence ratio: 1.1

## AACTACCGCG
  switch fluorescence ratio: 1.16

## ACCGGTCAGG
  switch fluorescence ratio: 0.992

## CGAATCTTT
  switch fluorescence ratio: 1.1

## CTGAGTGCAA
  switch fluorescence ratio: 2.58

## TTGCCGCTGA
  switch fluorescence ratio: 1.06

## ATGTTGCGTA
  switch fluorescence ratio: 0.95

## TGCTCGGTGT
  switch fluorescence ratio: 0.996

## TACAACGAGT
  switch fluorescence ratio: 1.01

## GGCCCGGTAA
  switch fluorescence ratio: 1.01

## TGAAGCAGTA
  switch fluorescence ratio: 1.24

## CTATTTTAAA
  switch fluorescence ratio: 0.987

## GGGCAGCCCT
  switch fluorescence ratio: 0.999

## TTCAGTTTG
  switch fluorescence ratio: 1.04

## TTCTTTAAA
  switch fluorescence ratio: 0.973

## AGGACTCTCT
  switch fluorescence ratio: 0.998

## AACCCCGACC
  switch fluorescence ratio: 1.86

## CTATTTCAGC
  switch fluorescence ratio: 0.986

## GATCAGTTTA
  switch fluorescence ratio: 1.03

## AATTTCTGCG
  switch fluorescence ratio: 0.988

## AGATTGGGAT
  switch fluorescence ratio: 1

## ATCATAGACG
  switch fluorescence ratio: 1.05

## AGGTTAGGAC
  switch fluorescence ratio: 0.997

## CAATCATAAT
  switch fluorescence ratio: 1.11

## TGAGGCGTGT
  switch fluorescence ratio: 1.05

## AATCGGGGCA
  switch fluorescence ratio: 0.954

## AGCATCAGGT
  switch fluorescence ratio: 1

## CCATTATTCG
  switch fluorescence ratio: 0.942

## TTTACGGAAA
  switch fluorescence ratio: 0.999

## CGGGGTTTAC
  switch fluorescence ratio: 2.16

## AGTAGCCCTT
  switch fluorescence ratio: 0.983

## CCGGGTTGGA
  switch fluorescence ratio: 1.07

## TTTCGCTCTA
  switch fluorescence ratio: 1.01

## CCCGTTTGTT
  switch fluorescence ratio: 0.938

## TGGGCACGAA
  switch fluorescence ratio: 1.02

## CGTTGATCTA
  switch fluorescence ratio: 1.01

## ACTTTAGGTC
  switch fluorescence ratio: 1.01

## GGGAGATTTC
  switch fluorescence ratio: 0.951

## CGTTCTCAGA
  switch fluorescence ratio: 0.979

## CTATCGTA
  switch fluorescence ratio: 1.01

## AAGGTTAAAA
  switch fluorescence ratio: 0.998

## GTAGGGAATT
  switch fluorescence ratio: 0.983

## ATTTTCTTAA
  switch fluorescence ratio: 0.983

## GTCCCAGAAA
  switch fluorescence ratio: 1.03

## TCGGTTAACA
  switch fluorescence ratio: 0.946

## AGCCGCTTGA
  switch fluorescence ratio: 1.06

## AAGGTAACGT
  switch fluorescence ratio: 0.999

## ACTGCAGGCC
  switch fluorescence ratio: 0.947

## AGCCCATGCG
  switch fluorescence ratio: 0.945

## TGTAAGGCAG
  switch fluorescence ratio: 1

## ATACAAGGG
  switch fluorescence ratio: 0.991

## GTGGGGTGCA
  switch fluorescence ratio: 1.03

## ATCCTTAGTC
  switch fluorescence ratio: 0.987

## TGACATGAGA
  switch fluorescence ratio: 0.995

## CTTTGTTGGA
  switch fluorescence ratio: 1.03

## ATTCCTGATG
  switch fluorescence ratio: 1.01

## AGCATCGCGA
  switch fluorescence ratio: 1.09

## TACTCATTAT
  switch fluorescence ratio: 1.02

## TTCGACGATT
  switch fluorescence ratio: 0.993

## CCCAAAAACA
  switch fluorescence ratio: 1.19

## GGATTAGTAC
  switch fluorescence ratio: 1

## ACGGCGGTCC
  switch fluorescence ratio: 1.04

## ACAGGTCGGA
  switch fluorescence ratio: 1.03

## GTGTAGCTTC
  switch fluorescence ratio: 1.02

## GGCGATGCAT
  switch fluorescence ratio: 1.12

## TATGGTACGA
  switch fluorescence ratio: 1.01

## CGAGGGGGTC
  switch fluorescence ratio: 0.961

## TTGCAAACTT
  switch fluorescence ratio: 0.973

## CACGTCACAT
  switch fluorescence ratio: 1.51

## TGCAAGATTT
  switch fluorescence ratio: 0.978

## CACAGTTATG
  switch fluorescence ratio: 1.03

## GGTAGGTA
  switch fluorescence ratio: 1.05

## CTGGTAAGCT
  switch fluorescence ratio: 1.05

## TTTCAGTGTG
  switch fluorescence ratio: 0.999

## ACATTTAGGT
  switch fluorescence ratio: 0.987

## ACCGGAGTTA
  switch fluorescence ratio: 1.16

## TCGGATTAAG
  switch fluorescence ratio: 0.995

## ACAATAGACG
  switch fluorescence ratio: 1.01

## AAAAACCCGG
  switch fluorescence ratio: 1.02

## CATACACAAG
  switch fluorescence ratio: 1.04

## TGCACGATCT
  switch fluorescence ratio: 1.28

## GAGCCCGAGG
  switch fluorescence ratio: 1.1

## TTTACCTGCT
  switch fluorescence ratio: 0.973

## CCAATTAAGC
  switch fluorescence ratio: 0.993

## ACGTTAACCA
  switch fluorescence ratio: 1.23

## GAAGCATTTG
  switch fluorescence ratio: 1.07

## ATAAGGGAAA
  switch fluorescence ratio: 0.994

## CGTGGGGTCG
  switch fluorescence ratio: 0.991

## ATCTGCAAGT
  switch fluorescence ratio: 1.19

## GGGCTTAGCA
  switch fluorescence ratio: 0.99

## CGCCTTTGTA
  switch fluorescence ratio: 1.02

## GTTACCGTGC
  switch fluorescence ratio: 1.04

## AACGGGGCCA
  switch fluorescence ratio: 1.02

## GTTGCTCGTC
  switch fluorescence ratio: 1

## CGTCGCATTA
  switch fluorescence ratio: 1.67

## GGATATGGGA
  switch fluorescence ratio: 0.985

## CATCTTTTGC
  switch fluorescence ratio: 1.03

## AGTTAGTAAT
  switch fluorescence ratio: 1

## TAAGGATTTG
  switch fluorescence ratio: 0.978

## ATATGTAGGC
  switch fluorescence ratio: 1.02

## TATGTAAACG
  switch fluorescence ratio: 1.05

## TGCGATTCGC
  switch fluorescence ratio: 1.02

## CGTCAAAAGG
  switch fluorescence ratio: 0.984

## GGTGACAGGA
  switch fluorescence ratio: 0.978

## TGTTTTTCCT
  switch fluorescence ratio: 1.03

## TGTCGCCTAG
  switch fluorescence ratio: 1.02

## ACTCGACAAG
  switch fluorescence ratio: 1.14

## TTCAACGCAC
  switch fluorescence ratio: 2.33

## CCTAGGATGA
  switch fluorescence ratio: 1.02

## AGGTATGA
  switch fluorescence ratio: 0.971

## TCGAGGGGCT
  switch fluorescence ratio: 1.1

## ATAATAGGA
  switch fluorescence ratio: 0.975

## CTGCGCATGG
  switch fluorescence ratio: 3.42

## GCAGTCGTCC
  switch fluorescence ratio: 1.05

## GCATGAGAAC
  switch fluorescence ratio: 0.967

## TCATAACCAG
  switch fluorescence ratio: 0.977

## TACCCCACTC
  switch fluorescence ratio: 1.22

## AGATCCGGAC
  switch fluorescence ratio: 0.958

## ATTCCCACAG
  switch fluorescence ratio: 2.24

## AAGAAAAGTG
  switch fluorescence ratio: 0.931

## ACAAATCTCT
  switch fluorescence ratio: 1.06
